Results reported in PubChem BioAssay AID485297 (National Center for Advancing Translational Sciences (NCATS), 2010).
Hit rate of the full screen: of about 320,000 compounds, about 9,100 (2.8%) were called active. Inconclusive means that the source gave no clear call. Such entries were picked first, then a sample of the others. Calls follow the shape of the dose curve; as a rule, active = well fitted activation curve with a large enough effect; inconclusive = small, poorly fitted or top-dose-only effect; inactive = no such curve, though single readings can be large or run the other way. Potencies beside an inconclusive call are fits to weak or partial responses and may not hold up.

Experiment: qHTS Assay for Rab9 Promoter Activators; also: nearly all actives have a fitted effect of over 60% in size
Details: Huh7 Rab9 promoter-luciferase reporter, luminescence, 24 h; series mostly up to 9.22 µM
How it was run: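 Luminescence from Amplite-detected luciferase (10 minutes, ambient) reports Rab9 promoter activation. Before that, stable Rab9-luciferase Huh7 cells (1500/well, reduced-serum OP-MEM I plus 10% FBS) were exposed to compound for 24 hours at 37C.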
Potency is read from the fitted curve at half-maximal effect; tags tell the direction and shape of the fitted curve.

Potency, active:
C/C(=N\OC(=O)c1cccc(C)c1)c1sc(-c2ccccc2)nc1C 2.82 µM
O=C(/C=C/Nc1ccc(Br)cc1F)c1ccccc1 0.447 µM
Nc1nc2ccc(Oc3ccccc3)cc2s1 3.98 µM
Cc1cccc(NC(=O)Nc2ccc3c(c2)OCO3)n1 2.24 µM
CCc1ccc(-c2csc(NC(=O)C3=COCCO3)n2)cc1 0.794 µM
CCOC(=O)c1cccc(N/C=C/C(=O)c2ccc(OC)c(OC)c2)c1 1.58 µM
CCOc1ccc(C(=O)N/N=C/c2ccccc2[N+](=O)[O-])cc1 1.41 µM
CCOc1cc(C2NN=C(c3ccc(C)cc3)S2)ccc1O (stereo unspecified) 3.55 µM
CN1N=C(C(=O)N2CCc3c([nH]c4ccccc34)C2c2ccccc2Cl)CCC1=O (stereo unspecified) 5.01 µM
COc1ccc(NC(=O)c2cnc3sccn3c2=O)cc1 2.51 µM
O=C(c1ccccc1)c1cnc(-c2ccc(Cl)cc2)s1 0.316 µM
CN(C)c1ccc(NC(=O)Nc2cccc(Cl)c2)cc1 1.78 µM
O=C(Nc1cccc(Cn2cccn2)c1)c1cc2c(s1)CCCC2 0.355 µM
O=C(NCc1ccccc1)C(=O)Nc1cccc(C(=O)O)c1 0.316 µM
O=C(Nc1ccc2c(c1)OCCO2)NC1CCCCC1 0.562 µM
COc1cc(SC)ccc1C(=O)NNC(=O)c1cc(C)oc1C 1.26 µM
Cc1nn(-c2nc3ccccc3[nH]2)c(=O)c2ccccc12 0.1 µM
Cc1nc2sc(C(N)=O)c(N)c2c(C)c1CC(=O)c1ccccc1 2.82 µM
O=C(CSC(=S)N1CCSCC1)c1ccccc1 1.26 µM
CC(=O)c1ccc(NC(=O)c2cccs2)cc1 2.24 µM
CC1CCCCN1C(=O)CSc1nnc(-c2cccs2)o1 (stereo unspecified) 2.24 µM
CCCc1cc(=O)n2[nH]c(-c3ccccc3)cc2n1 2.82 µM
NC(=O)c1cnn(-c2ccc3ccccc3c2)c1N 3.98 µM

Potency, inconclusive:
Cc1ccc(/C=N/n2cnc3sc(C)c(C)c3c2=O)o1 3.55 µM [activator, partial curve]
Cc1ccc(/C=N/NC(=O)c2ccccn2)o1 2.24 µM [activator, partial curve]
CC(C)(C)Nc1nc(-c2ccc3c(c2)CCN3C(=O)C2CC2)cs1 1.12 µM [activator, full curve]
Cc1ccc(SCCN2CCC(C)CCC2=O)cc1 (stereo unspecified) 1.58 µM [activator, partial curve]
O=C(NCCN1C(=O)S/C(=C\c2ccc(Cl)cc2)C1=O)c1ccc(F)c(S(=O)(=O)N2CCOCC2)c1 5.62 µM [activator, single point]
CCC1S/C(=N/C(=O)NC2CCCCC2)NC1=O (stereo unspecified) 2 µM [activator, partial curve]
O=c1[nH]n(CC2COC3(CCCCC3)O2)c(=O)c2ccccc12 (stereo unspecified) 5.62 µM [activator, single point]
Cn1nc(C(=O)Nc2nc3ccccc3[nH]2)c2ccccc2c1=O 5.62 µM [activator, single point]
N/C(=N\OC(=O)N1CCOCC1)c1ccc(Cl)cc1 5.01 µM [activator, single point]
Cc1ccc(NC(=O)Nc2ccon2)cc1 1.78 µM [activator, partial curve]
NC(=O)C1CCN(C(=S)c2ccc(-c3ccc(Br)cc3)o2)CC1 1.58 µM [activator, partial curve]
O=C(N/N=C/c1c[nH]c2ccccc12)c1ccccc1O 5.62 µM [activator, single point]
COc1ccc(NC(=S)c2ccccc2)cc1 2 µM [activator, partial curve]
Nc1c(-c2ccccc2)n[nH]c1-c1ccccc1 2 µM [activator, partial curve]
CC1(C)CCC(=O)N2CC[C@H]3C[C@H](OC(=O)Nc4ccccc4)C[C@@H]1[C@H]32 2.51 µM [activator, partial curve]
O=C(Nc1ccc(S(=O)(=O)N2CCCCCC2)cc1)c1ccco1 5.62 µM [activator, single point]
CCOC(=O)c1cnn(-c2ccc(C)cc2)c1N 3.55 µM [activator, partial curve]
Fc1cc(F)c2nc(N3CCOCC3)sc2c1 3.16 µM [activator, single point]
CCC(=O)NCCc1nc2cc(NC(=O)c3ccccc3Cl)ccc2n1C 1.26 µM [activator, partial curve]
Cc1cc2oc(=O)cc(CN(C)Cc3ccccc3F)c2cc1Cl 4.47 µM [activator, partial curve]
CCOc1ccc2nc(NC(=O)Cc3cccs3)sc2c1 5.62 µM [activator, single point]
c1ccc(-c2nc(-c3cccnc3)cs2)cc1 3.55 µM [activator, single point]
CCOC(=O)c1csc(COc2ccccc2Cl)n1 3.55 µM [activator, partial curve]
CCC(=O)Nc1ccc(C(=O)c2ccccc2)cc1 6.31 µM [activator, single point]
CCN1CCN(c2ccc(S(=O)(=O)N3CCCCC3)cc2NC(=O)Cc2c(Cl)cccc2Cl)CC1 3.55 µM [activator, single point]
N#Cc1ccccc1COC(=O)c1ccc2c(c1)OCO2 5.62 µM [activator, single point]
O=C(CCNc1ccc(Cl)cc1)c1cccs1 3.98 µM [activator, single point]
O=C(c1cccc(-c2nnc(-c3ccccc3)o2)c1)N1CCCCC1 2.24 µM [activator, partial curve]
CCn1nnc(NC(=O)c2cc3ccccc3o2)n1 3.98 µM [activator, partial curve]
Nc1nn(-c2ccccc2)c(N)c1N=Nc1ccccc1 0.794 µM [activator, full curve]
CCNc1oc(COc2cccc(C)c2)nc1C#N 5.62 µM [activator, single point]
O=C(c1ccc([N+](=O)[O-])cc1)n1nc(-c2ccccc2)nc1NCc1ccc(F)cc1 6.31 µM [activator, single point]
Cc1[nH]n(C2=NCCS2)c(=O)c1N=Nc1ccccc1 5.62 µM [activator, single point]
CC(=O)Nc1nnc(COc2ccccc2)s1 2.82 µM [activator, single point]
Cn1cccc1/C=C1\Cc2ccccc2C1=O 3.16 µM [activator, partial curve]
N/C(=N\OC(=O)c1ccccc1F)c1ccc([N+](=O)[O-])cc1 3.98 µM [activator, single point]
CC(=O)c1ccc(N2CCN(c3ncccn3)CC2)cc1 4.47 µM [activator, partial curve]
Cc1nn(-c2ccc(C(=O)O)cc2)c(N)c1-c1ccccc1 0.199 µM [activator, full curve]
Cc1ccc(C(=O)NC(=S)Nc2cccc3nsnc23)cc1 5.62 µM [activator, single point]

Potency, inactive:
CSc1ncc(CN2CCN(CC=C(C)C)C(CCO)C2)cn1 (stereo unspecified)
CCN1CCN(c2ccc(N=Cc3ccccc3O)cc2)CC1
O=C(NCc1n[nH]c(=S)n1-c1ccc(Br)cc1)c1ccc(S(=O)(=O)N2CCCCC2)cc1
CCOc1ccc(NC(=O)CCNS(=O)(=O)c2ccc3c(c2)oc(=O)n3C)cc1
CCOc1ccccc1N1CCN(Cc2cn[nH]c2-c2ccc(F)cc2)CC1
COc1cc(C#Cc2c(-c3ccccc3OC)oc3ccccc23)cc(OC)c1
CCN1CC(CN(C)Cc2cn(-c3ccc(C)cc3)nc2-c2cccc(C)c2)CC1=O (stereo unspecified)
Cc1ccccc1/C=C/c1nc2ccccc2c(=O)n1CCc1ccccc1
N#Cc1ccccc1S(=O)(=O)N1CCN(C(=O)C2CCCC2)CC1
Cc1ccsc1/C=N/NC(=O)c1ccncc1
CCOC(=O)C1CCN(C(=O)c2ccc3c(c2)NC(=O)/C(=C/c2ccccc2)S3)CC1
COCCn1c(=O)[nH]c2cc(C(=O)N3CCN(c4ccc(Cl)cc4)CC3)ccc2c1=O
Cc1ccc(Cn2ccc(NC(=O)C3C4CCC(C4)C3C(=O)O)n2)cc1 (stereo unspecified)
Cc1ccc(Nc2nc(CSc3nnc(-c4cccs4)o3)cs2)cc1
N#CCC(=O)N/N=C/c1ccc(OC2CSC2)cc1
CN1CCN(C(=S)NC(=O)c2ccc(C(C)(C)C)cc2)CC1
O=C(CCc1nnc(Cc2cccc(C(F)(F)F)c2)o1)NC1CC1
CCCc1cc(=O)oc2cc(C)cc(OCC(=O)N[C@@H](CSCc3ccccc3)C(=O)O)c12
COc1ccccc1/C=C/C=C1\Oc2c(ccc(O)c2CN2CCN(CCO)CC2)C1=O
